According to the RNAGym collection of RNA variant scans (doi:10.7554/elife.90254):
Read counts are not given, so values of variants with three or more changes are uncertain.

B1: LINE1-mini (parent)
chain: GGCAGAGCUCAACACAGCGUGGCAAAGUGGCUGUGGCUAGACUGCC

Variants of: B1
Experiment: self-cleavage, relative activity (ratio to wild type); higher = more cleavage; in vitro, sequencing; the parent is a self-cleaving ribozyme

Variant	self-cleavage
AGCAGAGCUCAAAACAACGUGGCAAAGUGGAUGUGGCUAGACUGCC	0.04
AGCAGAGCUCAAAACAGCAUGGGAUAGUGGCUCUGGCUAGACUGCC	0.18
AGCAGAGCUCAAGACAGUGUGCCAAUGUGGCUGUGGCUAGACUGCC	0.17
AGCAGAGCUCAAGACAGCGUGGCAAAGUGGGUGUGGCUAGACUGCC	0.04
AGCAGAGCUCAAGACAGCAUGGCAAAGUGGCUGUGGCUAGACUGCC	0.44
AGCAGAGCUCAAGACAGCGUGGCAAAGUGGCUAUGGCUAGACUGCC	0.09
AGCAGAGCUCAAGACAGCGUGGCAAAGUGGCUGUUGCUAGACUGCC	2.1
AGCAGAGCUCAAGACAGCGCGACAAAGUGGAUUUGGCUAGACCGCC	0.02
AGCAGAGCUCAAUACAGCGUGGCAACGUGGCUGUGGCCAGACUGCC	0.11
AGCAGAGCUCAAUACAGCGUGGCAAAGUGGGUGUGCCUCGACUGCC	0.04
AGCAGAGCUCAAUACAGCAUGGCAAAGUGGCUGUGGCUAGACUGCC	0.13
AGCAGAGCUCAAUACAGCGUGCCAAGGCGGCUGUGGCUGGACUGCC	0.09
AGCAGAGCUCAACAGAGCCUUGCAAAGUGGCUGUGGCUAGACUGCU	0.14
AGCAGAGCUCAACAGAGCGUUGCAAAGUGGCUGUGGCUAGACUGCC	0.04
AGCAGAGCUCAACAGAGCGUGGCAAAGUGCCUGUGGCUAGACUCCC	0.03
AGCAGAGCUCAACAGAGCGUGGCAAAGUGUCUGUGGCUAGACUGCC	0.07
AGCAGAGCUCAACAGAGCGUGGCAAAGUGGCUGUGGCUAGACUUCC	0.08
AGCAGAGCUCAACAUUGCGUGGCAAAGUGGCUGUGUCUAGACUGCC	0.11
AGCAGAGCUCAACAUAGAGUGGCAAAGUGUCUGUGGUUAGACUGCC	0.04
AGCAGAGCUCAACAUAGCGUAGCAAAGUGGGUGUGGCUAGACUGCC	0.04
AGCAGAGCUCAACAUAGCGUGGCAAAGUGACUGUGGCGAGACUGCC	0.06
AGCAGAGCUCAACAUAGCGUGGCAAAGUGGCUGUGACUAGACUGCC	0.05
AGCAGAGCUCAACAUAGCGUGGCAAAGUGGCUGUGGCUAGACUACC	0.06

Variant	self-cleavage
AGCAGAGCUCAACACAGGGUGGCAACAUGGCUGUGGGUAGACUGCC	0.03
AGCAGAGCUCAACACAGGGUGGCAAAGUGGCUGUGGCUAGCCUGCC	0.02
AGCAGAGCUCAACACAGUGUGGCGAAGUGGCUUUGGCUAGACUGCC	0.01
AGCAGAGCUCAACACAGUGGGGCAAAGUGGCUGUGGCGAGACUGCC	0.01
AGCAGAGCUCAACACAGCGUGGAAAUCUGGAUAUGGCAAGAUUGCC	0.03
AGCAGAGCUCAACACAGCGUGGAAAAGUGGGUGUGGCUACACUGCC	0.02
AGCAGAGCUCAACACAGCGUGGAAAAGUGGCUAUGGCUAGAUCGCA	0.03
AGCAGAGCUCAACACAGCGUGGUAAAGCGGCUGUGGCUAGACUGCC	1.12
AGCAGAGCUCAACACAGCGUGGCAAAGUGGCUGUGGCUAGACUGGA	0.17
AACUGAGCUCAACACAGCGUGGCAAAGUGUCUGUGUAUAGACUGCC	1.93
AACAGAGCUCAACACAGCGUGGCAAUGUGGGUGUCGCUAGACUGUC	0.29
AACAGAGCUCAAGGCAACGUGGCAAAGUGGCUGUGGCUAGACUGCC	0.53
AACAGAGCUCAACAUAGCGUGGCAAAGUGCCUGGAGCUAGACUCCC	0.17
AACAGAGCUCAACACAGCGUGGCAAAGUGGCUGUGGCUAGACUGAC	0.76
ACCAGAGCUCCACACAGCGUGGCAAAGUGGCUGUGGCUAGACUGCA	0.01
ACCAGAGCUCAACACAGCGUGGCAAAGUGGCUGUGGCUAGCAUGCC	0.06
ACCAGAGCUUAACACAACGUGGCAAAGUGGCUGUGGCUAGACUGCC	0.03
ACCAGAGCUCAACAAAGCGUGGCAAAGUGGCUUUGGCUAGACUGCC	0.04
ACCAAAGCUCAACACAGCGUGGCAAAUUGGCUGUGGCUGGACUGCC	0.19
ACCAAAGCUCAACACAGCGUGGCAAAGUGCCUGUGGCUAGACUGCA	0.35
ACCAGAGCUCAACACAGCGUGGCAAAGUAGCUGUGACUAGACUGCC	0.38
ACCAGAGCUCAACACAGCGUGGCAAAGUAGCUGAGGCUAGACUGCC	0.22
ACCAGAGCCCAACACAGCGUGGCAAAGUGGCUGUGGCCAGACAGCC	0.01

Variant	self-cleavage
AUCCGAGCUCACAACAGCGUGGCAAAGUGGCUGUGGCUAGUCUGCC	0.04
AUCAGAGCUCACCACAGCGAGGCAAAGAGGCUGUGGCUAGACUGCC	0.02
AUAAGAGCUCAACACAGCGUGGCAAAGUGGCUGUGGCGGGACUGCC	1.64
AUCAGAGGUCAACACAGCGUGGCAAAGUGGCUGUGGCUAGACUGCC	0.03
AUCAGAGCUAAACACAGCGUGGCUAAGUAGCUGUGGGUAGACAGCC	0.01
AUCAAAGCUAAACACAGCGUGCCCAAGUGGCUGUGGCUAGACUGCC	0.02
AUCAGACCUCAACACGGCGUGGCAAAGUGGCUGUGGCUAGACUGCC	0.05
AUCAGAGCUCAACACAGCGUGCCAAAGUGGCUGUGGCUGCACUGCC	0.03
AUCAGAGCUCAACACAGCGUGGCAAACUGGCGGUGGCCAGAAUGCC	0.05
AUCAGAGCUCAACACAGCGUGGCAAAGUGGCUGUAUCUAGACUGCC	0.07
AUCAGAGCUCAACACAGCGUGGCAAAGUGGCAGUGGCUAGACUGCC	0.01
AGCAAAGCUCAACUCAGCGUGGCAAAGUGGCUGUGGCAAGACUGCC	0.11
AGCAAAGCUCAACACAGCGUGGCAACGUUGCUGUGGCUAGACUGCC	0.13
AGCAAAGGUCAACACAGCGUAGCAAAGUGGCUGCGGCUAGACUGCC	0.11
AGCAAAGCUCAACAUAGCGUGGCAAAGUGGCUGUGGCUAGACUGCC	0.1
AGCAAAGCUCAACAUGGCGUGGCAAAGUGGCUGUGUCUAGACUGCG	0.09
AGCAAAGCUCAACACAGAGUCGCAAAUUGGCUGUGGCUAGACUGCC	0.11
AGCAAAGCUCAACACAGCGUGGCAAAGUGGCUGUGGCUAGAAUGCC	0.13
AGCAAAGCACAACACAGCGUGGCAAAGUGGCUGUGGCGAGACUGCC	1.03
AGCAAAGCUCAACACAGCGUGGCAAAGAGGCUGUGGCAAGACUGCC	0.06
AGCACAGCUCAACACAGCGUGGCAAAGUGGCUGUUACUAGACUACC	0.05
AGCACAGCCCAACACAGCGUGGCAAACUGGCUGUGGCUAGACCGCC	0.03
AGCAUAGCUCAACGCAGCGUGGCAAAGUGGCUGUGGCUAUACUGCC	0.02

Variant	self-cleavage
AGCAUAGCUCAACACAGCGUGGCAACAUGGCUGUGGCUAGACUGCC	0.02
AGCAUAGCUCAACACAGCGUGGCAAAGUGGCUGUGGCUAGACUGCG	0.14
AGCAUAGCUCAACACAUCGUGGCAAAGUGGCUUUGGCUAGACUGCC	0.07
AGCAGAACUCAACACAGCGUGGCAUAGUGGCUGUUGCUAGACUGCC	0.23
AGCAGAACUCAACACAGCGUGGCAAAGUGGCUGUGGCUUGACUGCC	0.93
AGCAGAACUCAACACAGCGUGGCAAAGUGGCUGUGGCUAGUCUGCC	0.39
AGCAGAACUCAACAAAGCGUGGCAAAUUGGCUGUGGCUUGACUGCA	0.57
AGCAGAACUCAACACAACGUGGCAAAGUGGCUGUGGCUCGACUGCC	0.3
AGCAGAACUCAACACAGCGUUGCAAAGUGGCUGUGGCUAGACUGCC	0.45
AGCAGAACUCAACACAGCGUGGCAAAAUGGCUGUGGCUAGACUGCC	0.56
AGCAGAACUCAACACAGCGUGGCAAAGUAGCUGUGGCUAGACUGCC	0.46
AGCAGAACUCAACACAGCGGGGCAAAGUUGCUGUGGCUAGAAUGCC	0.12
AGCAGACCUCAACACAGCGUGGCUAAGUGGCUGUGUCUAGACUGCC	0.29
AGCAGACCUAAAAACAGCGUGGCAAAGUGACUGUGGCUAGACUGCC	0.1
AGCAGACCUCAACACAGUGUGGCAAAGUGGCUGUGGCUAGACUGCU	0.39
AGCAGACCUCAACACAGCGUGGCAAAGUGGCUGUGGCUAGACUACC	0.52
AGCAGACCCCAACACAGCGUGGCAAAGUGGCUGUGUCUAGUCUGCC	0.09
AGCAGAGCUCAACACAACCUCGCAAAGUGGCUGUGGCUAGACUGCC	1.4
AGCAGAGCUCAACACAACGUGGCAAAGUGGCUGUUGCUAGACUGCC	0.12
AGCAGAGCUCAACACACCGUGGCAUAGUGGCUGUGGCUAGACUGCC	0.96
AGCAGAGCUCAACACACCGUGGCAAAGUGGCUGUGGAUAGACUGCC	0.06
AGCAGAGCUCAACACAUCGUUGCAAAGUGGCUCUGGCUAGACUGCC	0.04
AGCAGAGCUCAACACAUCGUGGCAAAGUUGCUGUGGCAAGACUGCC	0.04

Variant	self-cleavage
AGCAGAGCUCAACACAUCGUGGCAAAGUGGCUAUGUCUAGACUGUC	0.04
AGCAGAGCUCAACACAGCAUGGAAAAGUGGCUGUGGCUAGACUGCC	1.61
AGCAGAGCUCAACACAGCAUGGCAAAGUGGCUGAAGCCAGACUGCC	0.03
AGCAGAGCUCAACACAGCAUGGCAAAGUGGCUGGGGCUAGACUGCC	0.33
AGCAGAGCUCAACACAGCCUGUCAAAAUGGCUGUGGCUAGACUGCU	0.89
AGCAGAGCUCAACACAGCCUGGCAAAGUGACUGUGGCUAGAUUGCC	1.44
AGCAGAGCUCAACACAGCUUGGCAAAGUGGAUGUGGUUAGACUGCC	0.09
AGCAGAGCUCAACACAGCUUGUCAAAGUGGCUGUGGCUAGACUGCC	0.18
AGCAGAGCUCAACACAGCGUAGCGAAGCGGCGGUGGCUGGACUGGC	0.04
AGCAGAGCUCAACACAGCGUAGCAGAGUGGCUGUGGCUAGACUGCC	2.77
AGCAGAGCUCAACACAGCGUAGCAGAGUGGCGGUGGCUAGACUGCC	0.11
AGCAGAGCUCAACACAGCGUAGCAAAGUAGCUGUGGCUAGAUUGCC	0.5
AGCAGAGCUCAACACAGCGUAGCAAAGUUGCUGUGGCUAGACUGCC	1.08
AGCAGAGCUCAACACAGCGUAGCAAAGUGGCUGUGGCUAGACAACC	0.1
AGCAGAGCUCAACACAGCGUCGAAAAGUGGCUGUCGCUAGACUGCC	0.08
AGCAGAGCUCAACACAGCGUCGCAAAGUGGCUUUGGCUAGACUGCC	0.13
AGCAGAGCUCAACACAGCGUUGAAAUGUGGCUGUGGCUAGACUGCC	1.67
AGCAGAGCUCAACACAGCGUUGCAAAGUGGCUGUGGCAAGACUGCU	0.6
AGCAGAGCUCAACACAGCGUGACAAAGUGGCUGUGGCUGGACUGAC	0.15
AGCAGAGCUCAACACAGCGUGCCAAAGUGGCUGUGGCUCGACUGCC	0.06
